Hit rate of the full screen: of about 310,000 compounds, about 18,000 (5.8%) were called active. The inconclusive results got no clear call from the source; some entries with a clear call stand among them for comparison. Calls come from the whole dose curve; as a rule, active = well fitted inhibition curve with a large enough effect; inconclusive = small, poorly fitted or top-dose-only effect, or another doubt; inactive = no such curve, though single readings can be large or run the other way. Potencies of inconclusive entries are left out as doubtful fits.
assay: Primary qHTS for delayed death inhibitors of the malarial parasite plastid, 48 hour incubation; conditions: P. falciparum luciferase growth in erythrocytes; series mostly up to 28.7 µM; activity change, negative = inhibition: at the top concentration
Summary of the method: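 Read-out is firefly luciferase luminescence from an integrated reporter in P. falciparum, so falling signal marks reduced parasite growth. Infected erythrocytes were at 2% hematocrit and 0.1% parasitemia (final) in Albumax-supplemented RPMI 1640.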
% is set by controls: 0 for no effect and ±100 for the full control effect; potency is the fitted concentration of half-maximal effect; tags give direction and shape of the fitted curve.

| SMILES | Potency | activity change, negative = inhibition |
| --- | --- | --- |
| Cc1cc(O)c(C(=O)/C=C/c2ccccc2)c(=O)o1 | inconclusive [inhibitor, single point] |  |
| CC(Oc1ccccc1)C(=O)N1CCN=C1SCc1ccccc1F (stereo not given) | inconclusive [inhibitor, single point] |  |
| Cc1cc(C(=O)Nc2cccc(-c3ccc(N4CCOCC4)nn3)c2)ccc1[N+](=O)[O-] | inconclusive [inhibitor, single point] |  |
| COc1ccc(N2CC(C(=O)Nc3cccc(S(=O)(=O)N4CCCC4)c3)CC2=O)c(OC)c1 (stereo not given) | inconclusive [inhibitor, partial curve, poor fit] |  |
| O=c1cc(NCc2ccco2)[nH]c(=O)n1-c1ccc(Br)cc1 |  | inactive: -6.98% |
| O=C(/C=C/c1ccc(Br)o1)Nc1nnc(C2CC2)s1 |  | inactive: 24.4% |
| Cc1cnc(=O)[nH]c1SCc1ccc([N+](=O)[O-])cc1 |  | inactive: 10.7% |
| CCOC(=O)Cn1c(S(=O)(=O)Cc2cccc(F)c2)nc(-c2ccccc2)c1-c1ccccc1 | active: 8.28 µM |  |
| CCNC(=S)NNC(=O)c1cc(-c2cccc(OC)c2)nc2ccccc12 |  | inactive: -4.54% |
| CN1CCN(C(=O)c2ccc3c(c2)N(Cc2ccc(F)cc2)C(=O)c2ccccc2S3=O)CC1 (stereo not given) | inconclusive [inhibitor, partial curve, poor fit] |  |
| Cc1nc([N+](=O)[O-])c(Br)n1CC(=O)c1ccccc1 | inconclusive [inhibitor, single point] |  |
| O=C(Nc1cccc(F)c1)c1ccccc1 |  | inactive: 46.6% |
| CCOCCCN1C(=O)CN(C2CCC(C)CC2)C(=O)C1c1ccc(C)cc1 (stereo not given) | inconclusive [inhibitor, single point] |  |
| CCOC(=O)Cn1c(S(=O)(=O)Cc2ccc(Cl)cc2)nc(-c2ccccc2)c1-c1ccccc1 | inconclusive [inhibitor, partial curve, poor fit] |  |
| CCCC(=O)Nc1ccc(Cl)c(NC(=O)c2ccc(Br)o2)c1 | inconclusive [inhibitor, partial curve, poor fit] |  |
| c1ccc(C2Nc3ccccc3-c3nc4ccccc4n32)cc1 (stereo not given) | inconclusive [inhibitor, single point] |  |
| Cn1cc(C(c2ccccn2)c2cn(C)c3ccccc23)c2ccccc21 | inconclusive [inhibitor, single point] |  |
| CC1CCc2nc3ccccc3c(C(=O)OCC(=O)N3CCc4ccccc43)c2C1 (stereo not given) | active: 8.28 µM |  |
| Cc1cc(C(F)F)n2ncc(C(=O)NC3CCCCCC3)c2n1 | inconclusive [inhibitor, single point] |  |
| C/C(N)=C(/C#N)C(=O)CSc1nnnn1-c1ccc(C)cc1C |  | inactive: -28.8% |
| Cc1ccc2nc3nc(NCC4CCCO4)c(C(=O)NC4CCCCC4)cc3c(=O)n2c1 (stereo not given) | inconclusive [inhibitor, partial curve, poor fit] |  |
| Nc1nc2nccc(-c3ccc(Cl)cc3)n2n1 | inconclusive [inhibitor, single point] |  |
| O=C(CN1C(=O)NC2(CCCCCC2)C1=O)c1ccccc1 | inconclusive [inhibitor, single point] |  |
| Cc1onc(-c2c(F)cccc2Cl)c1C(=O)NCc1ccccc1 |  | inactive: -12.2% |

| SMILES | Potency | activity change, negative = inhibition |
| --- | --- | --- |
| COc1cc2c(cc1OC)-c1c(OC)c(OC)cc3c1[C@H](C2)[N+](C)(C)CC3 | inconclusive [inhibitor, full curve] |  |
| CN(C)c1cc[n+](CC(=O)Nc2ccc([N+](=O)[O-])cc2Cl)cc1 | inconclusive [inhibitor, full curve] |  |
| O=C(/C=C/c1ccccc1Cl)Nc1cccc(O)c1 |  | inactive: 278% |
| C#CCOCCOCCOCCNc1nc(N2CCN(C(=O)CCCCCCCCCCNC(=O)[C@H]([C@@H](C)CC)n3cc(CCCCN=C(N)N)nn3)CC2)nc(N2CCN(C(=O)CCCCCCCCCCNC(=O)[C@H](CO)n3cc(CCCCCN)nn3)CC2)n1 | active: 5.22 µM |  |
| O=C(C1=C[C@H](c2csc3ccccc23)C[C@H](OCCCCO)O1)N1CCN(Cc2ccccc2)CC1 | active: 3.7 µM |  |
| O=C(Nc1ccccc1C(=O)NCC1CCCO1)c1ccc(Cl)cc1 (stereo not given) | inconclusive [inhibitor, partial curve, poor fit] |  |
| Cc1ccc(-c2nnc(SCC(=O)Nc3nccs3)n2N)cc1 |  | inactive: 46.7% |
| COc1ccc(OC)c(NC(=O)CN(c2ccc(C)cc2)S(=O)(=O)c2c(C)n[nH]c2C)c1 | inconclusive [inhibitor, partial curve] |  |
| CC(Oc1ccc(-c2ccccc2)c(F)c1)c1ccn(S(=O)(=O)c2ccc(Cl)cc2)n1 (stereo not given) | inconclusive [inhibitor, single point] |  |
| Cc1cc(/C=N/NC(N)=S)c(C)n1-c1ccc(Cl)cc1 | inconclusive [inhibitor, single point] |  |
| CCOc1ccc(NC(=O)CSc2nnc(C(C)C)n2CC)cc1 | inconclusive [inhibitor, single point] |  |
| Cc1cc(=O)nc2c3ccccc3n(C(C)C(=O)Nc3cc(F)ccc3F)n12 (stereo not given) | inconclusive [inhibitor, single point] |  |
| Cn1cc(CN2CCc3c([nH]c4ccccc34)C2C(C)(C)C)cn1 (stereo not given) | inconclusive [inhibitor, single point] |  |
| COc1cc(NC(=O)c2cccs2)ccc1NC(=O)c1cc2ccccc2o1 |  | inactive: 16.2% |
| CCOc1ccc(OCC)c(NC(=O)CN(C)S(=O)(=O)c2cccc3nsnc23)c1 | active: 1.17 µM |  |
| COc1cc(NC(=O)CC2NCCNC2=O)cc(OC)c1 (stereo not given) | inconclusive [inhibitor, single point] |  |
| CC(C)=CCN1CCN(Cc2cccc3nonc23)CC1CCO (stereo not given) |  | inactive: 3.77% |
| Cc1ccc(CN2CC3CC(C2)c2cccc(=O)n2C3)cc1 (stereo not given) | inconclusive [inhibitor, partial curve] |  |
| COC(=O)c1cc2c(ccn2-c2ccc(F)cc2)n1C(C)C | inconclusive [inhibitor, partial curve] |  |
| C/C(=N\NC(=S)NC1CCCCC1)c1cccc(Br)c1 | active: 1.04 µM |  |
| Cc1nnc(SCC(=O)Nc2cc(S(=O)(=O)N3CCOCC3)ccc2C)s1 |  | inactive: -5.12% |
| CN(C)C1(CNCC(O)c2ccccc2)CCCCC1 (stereo not given) |  | inactive: -2.24% |
| O=C(Nc1ccc(-c2csc(Nc3cccc(C(F)(F)F)c3)n2)cc1)c1cccc(C(F)(F)F)c1 | active: 9.28 µM |  |
| COc1ccc(OC)c(NC(=O)c2cccnc2Sc2cc(C)ccc2C)c1 | active: 10.4 µM |  |

| SMILES | Potency | activity change, negative = inhibition |
| --- | --- | --- |
| CCOC(=O)c1cccc(NC(=O)CCc2nc(-c3ccccc3F)no2)c1 |  | inactive: -8.6% |
| CCOc1ccc(NC(=O)CN(C)C(=O)Cc2c(C)nc3ccccc3c2C)cc1OCC | inconclusive [inhibitor, partial curve] |  |
| CC(C)COc1ccc(Br)cc1CNC(C)(C)C | inconclusive [inhibitor, single point] |  |
| CCN1CCN(CC(=O)Nc2cc(C(F)(F)F)ccc2OCCOC)CC1 |  | inactive: 6.02% |
| CSCCC(NC(=O)c1ccco1)C(=O)N1CCN(C(c2ccccc2)c2ccccc2)CC1 (stereo not given) | active: 8.28 µM |  |
| COc1ccc(S(=O)(=O)c2ccc(OCC3CO3)cc2)cc1 (stereo not given) | inconclusive [inhibitor, single point] |  |
| CCc1ccc(-c2nnn(CC(=O)N(C3CCCC3)C3CCS(=O)(=O)C3)n2)cc1 (stereo not given) | inconclusive [inhibitor, single point] |  |
| COc1ccc(-n2c(SCc3ccc(C#N)cc3)nnc2-c2ccccn2)cc1 | inconclusive [inhibitor, single point] |  |
| Cc1nnc(NC(=O)c2cc3ccccc3o2)s1 |  | inactive: 123% |
| Nc1c(C(=O)NCCN2CCOCC2)c2nc3ccccc3nc2n1Cc1ccccc1 | inconclusive [inhibitor, partial curve, poor fit] |  |
| Cc1onc(-c2c(Cl)cccc2Cl)c1C(=O)NNC(=O)c1c(-c2c(Cl)cccc2Cl)noc1C | active: 8.28 µM |  |
| Cn1c(=O)c(=O)n(C)c2cc(S(=O)(=O)N3CCc4ccccc43)ccc21 | inconclusive [inhibitor, single point] |  |
| COc1cc(C(=O)NCC(=O)OCc2ccccc2Cl)cc(OC)c1OC |  | inactive: -1.57% |
| Cc1ccsc1/C=N/Nc1ncnc2nc[nH]c12 |  | inactive: 185% |
| COc1ccc(S(=O)(=O)N2CC(O)CC2C(=O)OCC(=O)Nc2ccc(Cl)cn2)cc1 (stereo not given) |  | inactive: 7.5% |
| Cc1cccc(-c2ncc(CN3CCC(CO)(CCCc4ccccc4)CC3)cn2)c1 | inconclusive [inhibitor, single point] |  |
| Cc1ccc(/C=N/NC(=O)c2nnn(-c3nonc3N)c2-c2ccc3c(c2)OCO3)s1 | active: 0.262 µM |  |
| N#Cc1c(C(F)(F)F)cc(-c2ccco2)nc1SCc1ccccn1 | inconclusive [inhibitor, single point] |  |
| CN(CC(=O)Nc1ccc(Cl)c(C(F)(F)F)c1)C(=O)c1cccs1 | inconclusive [inhibitor, single point] |  |
| C[N+]12CCC(CC1)C(OC(=O)C(O)(c1ccccc1)c1ccccc1)C2 (stereo not given) | inconclusive [inhibitor, partial curve, poor fit] |  |
| CCOC(=O)CCCSc1nnc(CCCCCN2C(=O)c3cccc4cccc(c34)C2=O)o1 | inconclusive [inhibitor, single point] |  |
| COc1ccc(C(CNC(=O)COc2ccc(Cl)c(C)c2)N2CCCCC2)cc1 (stereo not given) | inconclusive [inhibitor, full curve] |  |

Reference: PubChem BioAssay AID504832 (National Center for Advancing Translational Sciences (NCATS), 2011)
